Among all 340,000 compounds or so, about 6,900 (2%) were called active. Rule as the data show it: active = inhibition above about 30%; inactive = below that, where a call was filed. The entries are a selection whose mix differs from that of the whole data set. The source gives no active or inactive call for entries shown without one.
These compounds were tested against D(2) dopamine receptor (Homo sapiens) (UniProt P14416) (assay: HTS Assay for Allosteric Antagonists of the Human D2 Dopamine Receptor: Primary Screen for Antagonists). Conditions: HEK293 TREx D2 cells, calcium flux, dopamine EC80; at 10 µM; stronger effect = higher value.
Chain of UniProt P14416 (P14416 whole entry, looked up): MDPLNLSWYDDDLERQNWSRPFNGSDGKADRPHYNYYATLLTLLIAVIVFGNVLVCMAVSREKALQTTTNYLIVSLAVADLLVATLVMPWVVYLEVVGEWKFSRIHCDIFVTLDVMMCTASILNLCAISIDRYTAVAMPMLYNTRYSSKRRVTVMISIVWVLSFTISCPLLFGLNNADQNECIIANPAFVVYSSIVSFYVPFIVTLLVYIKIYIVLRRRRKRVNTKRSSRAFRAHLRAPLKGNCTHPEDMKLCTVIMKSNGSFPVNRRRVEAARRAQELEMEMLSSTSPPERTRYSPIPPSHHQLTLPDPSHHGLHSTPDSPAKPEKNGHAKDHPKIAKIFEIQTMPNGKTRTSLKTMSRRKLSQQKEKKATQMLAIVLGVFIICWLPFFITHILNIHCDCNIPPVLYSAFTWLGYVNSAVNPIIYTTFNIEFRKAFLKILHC
Outline: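 Tetracycline-induced HEK293 TREx cells expressing D2 receptor forced-coupled to calcium signalling, loaded with no-wash calcium dye. Compounds added and calcium flux read 180 s, then dopamine added at EC80 and read a further 180 s.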
With `CN1C[C@H](CNC(=O)OCc2ccccc2)C[C@@H]2c3cccc4c3c(cn4C)C[C@H]21` the inhibition was active: 77.7%. `Cc1cccc(-n2c(/C=C\c3cccc(Br)c3)nc3ccccc3c2=O)c1` gave an inhibition of -26.9%. With `COc1ccc(C2CC(=O)Oc3c2c(=O)oc2ccccc32)c(OC)c1OC` (stereo unspecified) the inhibition was 13.4%. For `O=[N+]([O-])c1cccc(CN2CCN(Cc3ccc(Cl)cc3)CC2)c1`, the inhibition was active: 50.5%. `CCOC(=O)C1(Cc2ccc(Cl)cc2)CCN(C(C)CCn2cccn2)CC1` (stereo unspecified) was tested, and the inhibition was active: 77.6%. In the case of `CN1CC=C(c2c[nH]c3ccccc23)CC1`, the inhibition is reported as active: 74.7%. For `COc1ccc(OC)c(CCNCc2c(C(=O)O)c(C)n(Cc3ccc(F)cc3Cl)c2C)c1`, the inhibition was -23.9%. With `CN1CCN(c2cc([N+](=O)[O-])ccc2Cl)CC1` the inhibition was active: 69.4%. In the case of `COc1ccc(NC(=O)CCc2nc(C3=CCN(Cc4cccc(C)c4)CC3)no2)c(OC)c1`, the inhibition is reported as -13.2%. For `Cc1cc(OCC(=O)N2CCN(CCc3ccncc3)CC2)cc(C)c1Cl`, the inhibition was 12%. For `Cc1cccc(Cn2cccc(C(=O)Nc3nc4ccccc4s3)c2=O)c1`, the inhibition was -1.29%. `CCOC(=O)c1ccc(NC(=O)CSc2nc3c(cc2C#N)N2CCC3CC2)cc1` was tested, and the inhibition was -10.2%. In the case of `Cc1ccsc1C(=O)C1CCCN(Cc2cccc(OCCO)c2)C1` (stereo unspecified), the inhibition is reported as active: 51.9%. Compound `COc1cccc(-n2c(/C=C/c3cccc(C)c3)nc3ccccc3c2=O)c1` has an inhibition of -6.2%. For `CCCCCCN1CCN(c2ccc(Cl)cc2)CC1`, the inhibition was active: 50.9%. For `Cc1cccc(-n2c(CC3C(=O)Nc4ccc(C)cc43)nc3ccccc3c2=O)c1` (stereo unspecified), the inhibition was 20.2%. For `O=[N+]([O-])c1cccc(CN2CC=C(c3ccc(F)cc3)CC2)c1`, the inhibition was active: 72.6%. `Cc1ccc(-n2c(/C=C/c3cccc4ccccc34)nc3ccccc3c2=O)cc1` gave an inhibition of 24.1%. For `O=C(CCCN1CCC2(CC1)C(=O)NCN2c1ccccc1)c1ccc(F)cc1`, the inhibition was active: 71.3%. `CC(C)C[C@H]1C(=O)N2CCC[C@H]2[C@]2(O)O[C@](NC(=O)[C@@H]3C=C4c5cccc6[nH]cc(c56)C[C@H]4N(C)C3)(C(C)C)C(=O)N12` was tested, and the inhibition was active: 72%. For `CCCCN(Cc1ccccc1)C1CCN(CCc2ccccc2)CC1`, the inhibition was active: 55.8%. `O=C(Nc1ccccc1C(F)(F)F)c1cccn(Cc2ccccc2)c1=O` was tested, and the inhibition was -1.99%. For `NCCc1c[nH]c2ccc(F)cc12`, the inhibition was active: 94.7%. With `CC(=O)c1cccc(OCC(O)CN2CC=C(c3ccccc3)CC2)c1` (stereo unspecified) the inhibition was active: 80.5%. `Cc1ccccc1-n1c(/C=C/c2ccccc2F)nc2ccccc2c1=O` gave an inhibition of -7.85%. For `O=C(COc1ccccc1[N+](=O)[O-])N1CCN(CCc2ccccn2)CC1`, the inhibition was 2.45%. For `CCOC(=O)c1cncn1C(C)c1ccccc1` (stereo unspecified), the inhibition was active: 34.7%. `N#Cc1cc2c(nc1SCC(=O)Nc1ccc(Cl)c(C(F)(F)F)c1)C1CCN2CC1` gave an inhibition of -17.9%. With `COc1ccc(CN2CC=C(c3ccc(F)cc3)CC2)cc1Br` the inhibition was active: 62.9%. `NC(=O)c1ccc(NC(=O)c2cccn(Cc3ccccc3)c2=O)cc1` showed an inhibition of -2.97%. In the case of `Cc1ccc(-n2c(/C=C/c3cccc(C(F)(F)F)c3)nc3ccccc3c2=O)cc1`, the inhibition is reported as 11.4%. In the case of `Cc1c(C(c2ccc(O)cc2)c2c(O)c3ccccc3oc2=O)c(=O)n(-c2ccccc2)n1C` (stereo unspecified), the inhibition is reported as -9.99%. With `COc1cccc(CN2CC=C(c3ccc(F)cc3)CC2)c1` the inhibition was active: 72.4%. `CCOc1ccc(CN2C(=O)c3ccccc3Sc3ccc(C(=O)N4CCC5(CC4)OCCO5)cc32)cc1` was tested, and the inhibition was -1.33%. Compound `CCSc1nnc(NC(=O)c2cccn(Cc3ccc(Cl)cc3)c2=O)s1` has an inhibition of -13.9%. `Cc1cccc(-n2c(/C=C/c3cccc4ccccc34)nc3ccccc3c2=O)c1` showed an inhibition of 7.3%. Compound `O=c1c2ccccc2nc(/C=C\c2cccc(Br)c2)n1-c1ccc(O)cc1` has an inhibition of 26.7%. `CCn1cc(C=C2C(=O)NC(=O)NC2=O)c2ccccc21` was tested, and the inhibition was active: 37.9%. `Cc1ccc(-n2c(/C=C/c3ccccc3)nc3ccccc3c2=O)cc1C` gave an inhibition of -2.42%. Work on `Cc1ccc2scc(N3CCN(C)CC3)c(=O)c2c1` yielded an inhibition of -10.6%. With `Cc1ccsc1C(=O)C1CCCN(Cc2cnc(N3CCCC3)s2)C1` (stereo unspecified) the inhibition was active: 38.9%. In the case of `CC(=O)c1ccc(NC(=O)c2sc3nc4c(cc3c2N)N2CCC4CC2)cc1`, the inhibition is reported as 20.7%. In the case of `CN1CCC(OC(=O)C2c3ccccc3Oc3ccccc32)CC1`, the inhibition is reported as active: 33.2%. For `COc1ccc(OC)c(CN2CCCC(C(=O)c3sccc3C)C2)c1` (stereo unspecified), the inhibition was active: 51.2%. Compound `Cc1cccc(CN2C(=O)CN=C(c3ccccc3Cl)c3cc(Cl)ccc32)c1` has an inhibition of -12.4%. With `COc1cc(C)cc(CN2CC=C(c3ccccc3)CC2)c1O` the inhibition was active: 87.9%. `CCNC(=O)NC(=O)C(C)OC(=O)c1c(C)nn(Cc2ccccc2)c1Cl` (stereo unspecified) was tested, and the inhibition was active: 40.4%. For `CN1C[C@H](CO)C[C@@H]2c3cccc4[nH]cc(c34)C[C@H]21`, the inhibition was active: 95.8%. For `COc1ccccc1N1CCN(Cc2ccc(SC)cc2)CC1`, the inhibition was active: 78.8%. In the case of `Cc1cc(O)c(CN2CCN(c3ccccc3)CC2)cc1C`, the inhibition is reported as active: 49.3%. `O=C(Nc1ccc(OC(F)(F)F)cc1)c1cccn(Cc2ccccc2Cl)c1=O` was tested, and the inhibition was 0.249%. In the case of `Cc1cccc(N2CCN(Cc3ccc4c(c3)OCO4)CC2)c1C`, the inhibition is reported as active: 66.2%. In the case of `O=C(c1ccc2c(c1)N(Cc1c(F)cccc1Cl)C(=O)c1ccccc1S2)N1CCC2(CC1)OCCO2`, the inhibition is reported as -11%. `COc1ccc(-c2nn3c(=O)cc(CN4CCN(C(=O)COc5ccc(F)cc5)CC4)nc3s2)cc1` was tested, and the inhibition was -7.65%. `Cc1oc(-c2ccc(Cl)cc2)nc1CN1C(=O)CN=C(c2ccccc2)c2cc(Cl)ccc21` was tested, and the inhibition was -10.9%. For `CCc1ccc(OCC(=O)N2CCN(CCc3ccccn3)CC2)cc1`, the inhibition was 12.8%. With `COc1ccc(-c2nc(CN3C(=O)CN=C(c4ccccc4)c4ccccc43)c(C)o2)cc1OC` the inhibition was -10.5%. In the case of `OC(CN1CCC(c2c[nH]c3ccccc23)CC1)C(F)(F)F` (stereo unspecified), the inhibition is reported as active: 77%. With `O=C1CN=C(c2ccccc2)c2cc(Cl)ccc2N1Cc1ccc(Cl)cc1` the inhibition was -11%. With `COc1ccccc1-n1c(/C=C/c2ccccc2)nc2ccccc2c1=O` the inhibition was 10.8%. Compound `Cc1ccccc1Cn1cccc(C(=O)Nc2cc(Cl)ccc2C#N)c1=O` has an inhibition of 8.82%. With `Cc1cc(NC(=O)c2cccn(Cc3cccc([N+](=O)[O-])c3)c2=O)no1` the inhibition was 20.2%. `O=[N+]([O-])c1ccc(CN2CC=C(c3ccccc3)CC2)cc1` was tested, and the inhibition was active: 89.1%. In the case of `CCOc1ccc2nc(NC(=O)c3cccn(Cc4ccccc4C)c3=O)sc2c1`, the inhibition is reported as -0.0666%. `CCC(=O)N1CC(=O)Nc2ccc(C)cc2C1c1ccc(F)cc1` (stereo unspecified) gave an inhibition of -6.4%. In the case of `CN1C(=O)CN=C(c2ccc(Cl)cc2)c2cc(Cl)ccc21`, the inhibition is reported as active: 34.3%. In the case of `O=C(/C=C/c1c[nH]c2ccccc12)c1c(O)n(CCc2ccccc2)c(=O)[nH]c1=O`, the inhibition is reported as active: 36.6%. `CC(=O)OC1(c2ccccc2)CCN(C2CCCCC2)CC1C` (stereo unspecified) was tested, and the inhibition was active: 53.2%. With `CN1CCN(c2csc3ccc(F)cc3c2=O)CC1` the inhibition was 20.6%. With `CSc1ccc(C(c2c(O)c3ccccc3oc2=O)c2c(C)n(C)n(-c3ccccc3)c2=O)cc1` (stereo unspecified) the inhibition was -4.37%. `N#Cc1cc2c(nc1SCC(=O)Nc1cccc(F)c1)C1CCN2CC1` gave an inhibition of -1.11%. `OC(COCc1ccc(Cl)cc1)CN1CC=C(c2ccccc2)CC1` (stereo unspecified) was tested, and the inhibition was active: 84.7%. With `CCOc1ccc(-n2c(/C=C/c3ccccc3)nc3ccccc3c2=O)cc1` the inhibition was 17.7%. `COc1ccc(C2CN(C)CC2C(=O)c2ccc(F)cc2)cc1Cl` (stereo unspecified) was tested, and the inhibition was active: 69%. In the case of `COc1ccccc1N=Cc1c(O)n(C)c(=O)n(C)c1=O`, the inhibition is reported as active: 34.9%. `O=C(Nc1ccc2c(c1)OCCO2)c1cccn(Cc2cccc([N+](=O)[O-])c2)c1=O` gave an inhibition of 13.9%. `N#Cc1cc([N+](=O)[O-])ccc1NC(=O)c1cccn(Cc2cccc(F)c2)c1=O` was tested, and the inhibition was -2.03%. `O=c1c2ccccc2nc(-c2ccco2)n1-c1nccs1` was tested, and the inhibition was active: 30.2%. With `CCCCc1nc2ccccc2c(=O)n1-c1cccc(OC)c1` the inhibition was 4.72%. `Nc1c(C(=O)Nc2ccc(OC(F)(F)F)cc2)sc2nc3c(cc12)N1CCC3CC1` showed an inhibition of -14.3%. `O=C(c1ccc2c(=O)n(Cc3ccc4c(c3)OCO4)c(=S)[nH]c2c1)N1CCC2(CC1)OCCO2` was tested, and the inhibition was active: 43.9%. Work on `Cc1ccc(NC(=O)CN2C(=O)CN=C(c3ccccc3)c3ccccc32)c(C)c1` yielded an inhibition of 1.01%. In the case of `O=C(c1ccc2c(c1)N(Cc1ccc(F)cc1Cl)C(=O)c1ccccc1S2)N1CCC2(CC1)OCCO2`, the inhibition is reported as 2.18%. In the case of `CC[C@H]1C2C[C@H]3[C@@H]4N(C)c5ccccc5C45C[C@H](C2[C@H]5O)N3[C@@H]1O` (stereo partly specified), the inhibition is reported as active: 35.8%. `Cn1c(=O)n(C)c2cc(CNCCc3ccccc3F)ccc21` was tested, and the inhibition was -0.538%. In the case of `Oc1cc2c(cc1CN1CCN(c3ccc(F)cc3)CC1)OCO2`, the inhibition is reported as active: 57.8%. `C[C@@H]1C(=O)O[C@@H]2[C@H](O)C34[C@@H]5OC(=O)C3(O[C@H]3OC(=O)[C@H](O)C34[C@H](C(C)(C)C)[C@H]5O)[C@@]12O` (stereo partly specified) was tested, and the inhibition was active: 37.4%. `O=C1CC(c2ccccc2Br)c2c(c3ccccc3oc2=O)O1` (stereo unspecified) gave an inhibition of -0.956%. For `Cc1ccc(-n2c(/C=C/c3ccccc3)nc3ccccc3c2=O)cc1Cl`, the inhibition was 0.184%. For `Cc1cccc(C)c1OCC(=O)Nc1ccc(Cl)cc1C(=O)c1ccccc1`, the inhibition was -5.27%. With `CC(C)C[C@H]1C(=O)N2CCCC2[C@]2(O)O[C@](NC(=O)[C@@H]3C=C4c5cccc6[nH]cc(c56)CC4N(C)C3)(C(C)C)C(=O)N12` (stereo partly specified) the inhibition was active: 78.1%. `CS(=O)(=O)Nc1ccc(Cc2noc(-c3ccc4[nH]cc(CCN)c4c3)n2)cc1` was tested, and the inhibition was active: 40.2%. `O=C(COc1ccccc1[N+](=O)[O-])N1CCN(CCc2ccncc2)CC1` showed an inhibition of 0.49%. `COc1ccc(C)cc1NC(=O)c1cccn(Cc2ccccc2Cl)c1=O` was tested, and the inhibition was -27.8%. Compound `Cc1ccc(-n2c(/C=C/c3cc(Br)cs3)nc3ccccc3c2=O)cc1C` has an inhibition of -15.7%. With `CC(C)[C@H]1C(=O)N2CCC[C@H]2[C@]2(O)O[C@](NC(=O)[C@@H]3C=C4c5cccc6[nH]cc(c56)C[C@H]4N(C)C3)(C(C)C)C(=O)N12` the inhibition was active: 88.5%.
Also: 0% is about no effect.
